Data on 64 molecules can be found in PubChem BioAssay AID1508623 (National Center for Advancing Translational Sciences (NCATS), 2021).

About 450 (0.94%) of roughly 48,000 compounds were called active. Roughly 19% stayed inconclusive and do not appear here. Calls follow the shape of the dose curve; as a rule, active = well fitted inhibition curve with a large enough effect; inconclusive = small, poorly fitted or top-dose-only effect; inactive = no such curve, though single readings can be large or run the other way. Some of the results follow.

This assay can be described thus: Primary qHTS for Identification of Small Molecule Inhibitors of Huntingtin Promoter Activity. Also: nearly all actives have a fitted effect of over 50% in size. Particulars: HEK293 HTT promoter firefly luciferase reporter (activity 0% = vehicle and -100% = no light), 24 h; series mostly up to 57.5 µM; activity change, negative = inhibition: at the top concentration. Summed up:
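Quantitative HTS used concentration series of up to 57.5 uM final on HEK293 luciferase reporter cells, 24 h at 37 degrees C. Readout was Dual-Glo firefly luminescence.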
(In general: Quantitative high-throughput screening tests each substance at several concentrations.)
Turning to `O=C1c2ccccc2-c2n[nH]c3cccc1c23`, the “activity change, negative = inhibition” value is inactive: 8.6%. Under `Cc1nc(-c2ccccc2)sc1CCNS(=O)(=O)c1ccc(Br)cc1` stands inactive: -40.2%. Under `O=C(c1ccc(OCCN2CCCCC2)cc1)c1c(-c2ccc(O)cc2)sc2cc(O)ccc12` stands “inactive”; under `CCn1nc(C)c(CCN(C)C(=O)Nc2cc(Cl)ccc2C)c1C`, inactive: 19.2%; under `Cc1ccc(CNC(=O)CCS(=O)(=O)c2cc(Br)cc3c2N(C(=O)C2CC2)CC3)cc1`, inactive: -7.27%. The result for `COc1cc2c(c(OC)c1OC)-c1ccc(OC)c(=O)cc1[C@@H](NC(C)=O)CC2` reads “inactive”; that for `O=C(Nc1ccc(Cl)cc1)N1CCN(c2ccc3nnc(-c4ccc(F)cc4)n3n2)CC1`, inactive: -0.396%. Turning to `Cc1ccc(-n2nc(CO)c(C(=O)NCc3cccs3)n2)cc1`, the “activity change, negative = inhibition” value is inactive: -25.9%. As for `Cc1cc(C)c(S(=O)(=O)NCC(c2cccs2)S(=O)(=O)c2ccccc2)c(C)c1` (centres undefined), the “activity change, negative = inhibition” value was inactive: -29.4%. In the case of `Cc1ccc(NCc2nc3ccccc3n2CCOc2ccccc2)cc1`, the “activity change, negative = inhibition” value was inactive: -4.16%. The result for `Cc1cc(NC(=O)Nc2nc3c(s2)CCCCCC3)ccc1Br` reads inactive: -5.87%; that for `COc1ccccc1Nc1cc(C(=O)NCc2cccs2)c2ccccc2n1`, inactive: -18.2%.

Turning to `CCC(=O)N1CCc2cc(S(=O)(=O)CCC(=O)NCc3ccccc3OC)ccc21`, the “activity change, negative = inhibition” value is inactive: -1.34%. The result for `NC(=O)CSc1ncc2c(n1)-c1ccccc1N(Cc1cccc(F)c1)S2(=O)=O` reads inactive: -14.6%; that for `COc1ccc2nc3oc(C(=O)NCc4ccccc4OC)cc3cc2c1`, inactive: 22.6%; that for `COc1ccccc1-c1nnc(C2CCN(C(=O)c3ccc(C)cc3)CC2)o1`, inactive: -15%. Under `COc1ccc(-c2noc(-c3nnn(-c4cc(C)ccc4C)c3N)n2)cc1` stands inactive: 4.33%; under `CN(C)S(=O)(=O)c1ccc2c(c1)N(CC(=O)N1CCN(c3ccc(F)cc3)CC1)CCS2`, inactive: -19%. Consider `CC1CCN(c2ccc(-c3nc(C(C)C)no3)cc2[N+](=O)[O-])CC1`, for which the “activity change, negative = inhibition” value is inactive: 22.8%. For `CCN(CC)CCNC(=O)c1ccc(Cn2c(=O)c3cccn3c3cccnc32)cc1`, the “activity change, negative = inhibition” value was inactive: 5.35%.

For the molecule `Cc1cc(NC(=O)CSc2ncc(C(=O)Nc3ccc(F)cc3)c(=O)n2C)no1`, the “activity change, negative = inhibition” value is inactive: -8.7%.

`O=c1oc2ccc(Br)cc2cc1-c1csc(-c2ccc(Cl)cc2)n1`: the “activity change, negative = inhibition” value was inactive: 4.09%.

For `O=C(CC(NCc1cccnc1)C(=O)O)Nc1ccc(F)cc1` (centres undefined), the “activity change, negative = inhibition” value is inactive: -1.06%. Regarding `C=Cc1ccc(Cn2c(C(=O)O)c(CNCc3cc(Br)ccc3OC)c3ccc(C)cc32)cc1`, the “activity change, negative = inhibition” value was inactive: 2.14%. The result for `Cc1cccc(N2CCN(C(=O)CS(=O)(=O)c3cccc4nsnc34)CC2C)c1` (centres undefined) reads inactive: -13.3%; that for `CCCN1C(=O)C2(c3ccccc31)c1c(oc3ccccc3c1=O)C(=O)N2CCO` (centres undefined), inactive: -8.17%; that for `CC(CN1c2ccccc2Sc2ccccc21)N(C)C` (centres undefined), inactive: -7.49%. Under `COc1ccc(-c2cc3ccc(O)c(CN4CCC(C)CC4)c3oc2=O)cc1OC` stands inactive: -4.73%; under `Cc1cccc(Cn2cccc2CNS(=O)(=O)c2ccc(Br)cc2)c1`, inactive: -14.1%; under `COc1cc(-c2nnc(SCCOc3cc(C)cc(C)c3)o2)cc(OC)c1OC`, inactive: -6.54%. The result for `Cc1ccc(C(C)C)c(OC(C)C(=O)NCC2(N(C)C)CCCCC2)c1` (centres undefined) reads inactive: -15.1%; that for `Cc1ccccc1CN1C(=O)c2ccccc2S(=O)(=O)c2ccc(C(=O)OCC3CCCO3)cc21` (centres undefined), inactive: -2.83%.

For the molecule `COc1ccc(S(=O)(=O)Nc2cc(S(=O)(=O)c3ccccc3)c(O)c(C)c2C)cc1`, the “activity change, negative = inhibition” value is inactive: -16.5%.

Consider `CC(NC(=O)CN1C(=O)c2cccnc2Oc2ccc(Cl)cc21)c1ccccc1` (centres undefined), for which the “activity change, negative = inhibition” value is inactive: 5.71%. Under `Cc1cc(OC(C)C(=O)Nc2sc3c(c2C(N)=O)CCCC3)ccc1Cl` (centres undefined) stands inactive: 8%; under `CCOc1ccccc1CNc1nc2nc(C)cc(C)n2n1`, inactive: -2.35%.

`Cc1ccc(Cn2c(C(C)NC(=O)c3ccccc3)nc3ccccc32)cc1` (centres undefined): the “activity change, negative = inhibition” value was inactive: -21.8%.

Consider `CCOC(=O)c1c(C)[nH]c(CCC(=O)Nc2ccc(OC)c(OC)c2)c1C`, for which the “activity change, negative = inhibition” value was inactive: -12.1%. The result for `CC(C)NC(=O)CCC(=O)N1Cc2ccccc2Oc2ncccc21` reads inactive: -1.43%; that for `Cn1ccc2cc(S(=O)(=O)N3CCN(C(=O)Nc4ccc(F)cc4F)CC3)ccc21`, inactive: -28.9%; that for `CC1Cc2ccccc2N1S(=O)(=O)c1nnc(NC(=O)c2ccccc2)s1` (centres undefined), inactive: -23%. On to `NS(=O)(=O)c1ccc(NC(=O)C2Cc3ccccc3N2C(=O)c2ccccc2)cc1` (centres undefined), for which the “activity change, negative = inhibition” value was inactive: -1.68%. The result for `CCCCN(CC)CCCNC(=O)c1nn(C)c2c1CSc1ccccc1-2` reads inactive: -15.7%. Under `COc1ccc(OC)c(CCNC(=O)Cn2ncc3c([nH]c4ccccc43)c2=O)c1` stands inactive: 1.33%. Regarding `COCCCNC(=O)CCC(=O)NNc1nc2ccccc2c2nc(C)nn12`, the “activity change, negative = inhibition” value was inactive: -6.47%. With `CC(C)Oc1ccc(-c2nc3c(C#N)c[nH]n3c2NC2CCCCC2)cc1`, the “activity change, negative = inhibition” value is inactive: 12.3%. On to `COc1ccc(N2CC(NC(=O)C(c3ccccc3)c3ccccc3)CC2=O)cc1OC` (centres undefined), for which the “activity change, negative = inhibition” value is inactive: 3.17%. The result for `COc1cccc(-c2nc(S(=O)(=O)c3ccc(C)cc3)c(N3CCCCC3)o2)c1` reads inactive: -5.65%; that for `COc1ccccc1CNC(=O)c1ccc2nc(CCc3ccccc3)oc2c1`, inactive: -23.2%.

In the case of `COc1ccc(-c2nc(SCC(=O)Nc3c(C)cc(C)cc3C)n[nH]2)cc1`, the “activity change, negative = inhibition” value is inactive: -14.9%.

Take `CCOC(=O)c1c(C)oc2ncnc(Nc3ccc(OC)c(OC)c3)c12`: the “activity change, negative = inhibition” value was inactive: -9.21%. Under `COc1ccc(Cn2c(=O)c3cccnc3n(Cc3cccc(F)c3)c2=O)cc1` stands inactive: -34.7%; under `COC(=O)c1ccc(C(=O)OC)c(NC(=O)c2ccc(-c3ccccc3)s2)c1`, inactive: 11.4%. `CCOc1cc(N2CCC(O)CC2)ccc1Nc1ncc2c(n1)N(C)c1ccccc1C(=O)N2C`: the “activity change, negative = inhibition” value is inactive: 23.6%. On to `CCOC(=O)c1ccccc1NC(=O)CSc1nccn1Cc1ccco1`, for which the “activity change, negative = inhibition” value is inactive: -5.68%. Under `COc1ccccc1NC(=O)c1c(C)cc(C)nc1SCC(=O)c1ccc(Cl)cc1` stands inactive: -25%; under `CC(C)Oc1ccc(C(=O)N(Cc2ccco2)Cc2cccs2)cc1`, inactive: -14.2%. The result for `Cc1cccc(C)c1NC(=O)c1sc(-n2nc(C)c(Cc3ccccc3)c2C)nc1C` reads inactive: -2.07%; that for `O=C(CSc1ncc(S(=O)(=O)c2ccc(Cl)cc2)c(=O)[nH]1)Nc1cccc(C(F)(F)F)c1`, inactive: -4.45%.

`Cc1cc(OCC(=O)N(Cc2ccc(N(C)C)cc2)CC2CCCO2)ccc1Cl` (centres undefined): the “activity change, negative = inhibition” value was inactive: -25.3%. The result for `COc1ccc(-c2cc3nc(C)c(CCC(=O)NC4CCCCC4)c(C)n3n2)c(OC)c1` reads inactive: -14.5%; that for `O=C(c1cccn1-c1nnc(N2CCCC2)s1)N1CCN(c2ccc(Cl)cc2)CC1`, inactive: -25.8%; that for `COc1cc(C2Nc3c(C)cc(C)cc3-c3cc(C)nn32)cc(OC)c1O` (centres undefined), inactive: -21.6% [at 11.5 µM]. Under `Cc1ccc2c(c1)C(c1ccccc1)N(C(=O)Cc1ccc(F)cc1)CC(=O)N2` (centres undefined) stands inactive: -27.3%.
